The results in this text go back to patent US3959283A, “Amino-derivatives of 1,4-benzodioxan” (Laboratoire L. Lafon, priority 1974, dated 1976).

Where a name gives a salt, the structure may show the parent alone.

Holding throughout (format): in vivo
Test [1] has as its system dogs. As to the kind of experiment: Vasodilating properties of the product of Example 6 in anaesthetised dogs. The following applies: one test intraduodenal 10 mg/kg. The protocol:
When administered intra-arterially, the product of Example 6 is injected directly into the femoral artery. The flow rate is increased by 200% from a dose of 10 μg.

The subject of test [2] is dogs. As to the kind of experiment: General administration (intravenous, intraduodenal) to dogs (product of Example 5). From the text:
Intravenous administration:
The following results are observed:

Test [3] relates to femoral and vertebral arteries. Nature of the test: Local administration into femoral or vertebral artery of dogs (product of Example 5). The following applies: injected locally into femoral or vertebral artery.

`CCC(=O)OCCN1CCN(CC2COc3ccccc3O2)CC1` (centres unmarked) [Example 6, 1-[2-(1,4-Benzodioxanyl)-methyl]-4-[2-(propionyloxy)-ethyl]-piperazine dihydrochloride]: in the test with dogs [1] (i.v. 2.5, 5 and 10 mg/kg), the femoral flow rate entry is given as “increased in the tests wherein an increase in the pulse rate is observed”, the intraventricular pressure result is reported as “decreased”, the pulse rate result is listed as “either is not altered (2 tests) or is increased” and the ratio dp/dt entry is listed as “decreased”. In addition, in the test on dogs [1] (i.v. over 5 minutes, 2.5, 5 and 10 mg/kg), the hypotensive effect entry was “A hypotensive effect proportional to the dose”.
On to `CC(C)(C)c1ccc2c(c1)OCC(CN1CCN(CCO)CC1)O2` (centres unmarked) [Example 5, 1-[2-(6- or 7-{tertiarybutyl}-1,4-benzodioxanyl)-methyl]-4-(2-hydroxyethyl)-piperazine dihydrochloride], for which the vertebral dilating action result in the test with dogs [2] (i.v.) is “no vertebral dilating action”. Besides, the pulse rate effect entry with dogs [2] (i.v., 15 mg/kg) is on record as “bradycardia”. The “femoral vasodilating action, maximum increase” value in the test with dogs [2] (i.v., from 3.5 mg/kg) was 60%. Moreover, the “effect on the AP” value with dogs [2] (i.v., up to 15 mg/kg) is given as “no effect on the AP”. In addition, the vasodilating effect result in the test with dogs [2] (intraduodenal, 3.5, 7, 15 and 35 mg/kg) is given as “no vasodilating effect”. Moreover, in the test on dogs [2] (intraduodenal, from 7 mg/kg), the pulse rate entry was “the pulse rate decreases”. Further, in the test on dogs [2] (summary), the “vasodilating effect (summary)” value is “exclusively peripheral and very moderate vasodilating effect”. Further, in test [3], the “femoral and vertebral flow rates” value is “increases both these flow rates in proportion to the doses”; the “preference between flow rates” value was “a preference for the femoral flow rate”.
